According to PubChem BioAssay AID463173 (ICCB-Longwood Screening Facility, Harvard Medical School, 2010):
Hit rate of the full screen: of about 52,000 compounds, about 4,300 (8.3%) were called active. Rule as the data show it: active = survival mostly below about 52% (no sharp cut-off); inactive = mostly above about 56%. Some of the results follow.

Test system: DeltatarO mutant
Assay: S. aureus survival, RN4220 and DeltatarO strains – OD600, teichoic acid synthesis inhibitors, primary screen (AID 463173)
Settings: S. aureus RN4220 wild type/DeltatarO growth, OD600, 18 h, active compounds read low, screened at 18.75 µg/mL (by protocol)

Structure (SMILES)	survival
O=C1NCCCC1C(=O)Nc1ccncc1 (stereo unspecified)	inactive: 113%
O=C(N=C1SCC(=O)N1c1ccccc1)c1ccco1	inactive: 62%
CCC(=O)N1c2ccccc2CC1C(=O)NCc1ccccc1C (stereo unspecified)	inactive: 125%
O=C(CSc1nnc(CNC(=O)c2c(F)cccc2Cl)o1)Nc1ccccc1F	inactive: 107%
COc1ccc(CNn2cnnc2)c(O)c1	inactive: 97%
Cc1coc2c1c(C)cc1oc(=O)cc(C)c12	inactive: 65%
CC(C)OCCCNC(=O)c1ccc2c(=O)n(CCc3ccccc3)c(=O)[nH]c2c1	inactive: 78%
Cc1oc(-c2cccc(Cl)c2)nc1CN1CCCC(C(=O)NCc2ccc(F)cc2)C1 (stereo unspecified)	inactive: 52%
COc1ccc(-c2nnc(SCC(=O)Oc3c(C)cccc3C)o2)cc1OC	inactive: 102%
CCCCN(C)C(=O)C(Cc1ccccc1)NS(=O)(=O)c1ccc2c(c1)c(=O)n(C)c(=O)n2C (stereo unspecified)	inactive: 110%
C=CCc1cccc2cc(C(=O)Nc3cccc(Cl)c3)c(=O)oc12	inactive: 79%
Cc1cccc(C(=O)NCCc2sc(-c3ccccc3)nc2C)c1	inactive: 79%
CC(=O)c1c(C)oc2ccc(N(C(=O)Oc3ccccc3)S(=O)(=O)c3ccc(C(C)(C)C)cc3)cc12	inactive: 128%
CC(Sc1nnc2c(n1)[nH]c1ccccc12)C(=O)NC(C)(C)C (stereo unspecified)	inactive: 64%
CC(=O)Oc1cn(C(C)=O)c2ccccc12	inactive: 110%
COc1ccc(C)cc1NC(=O)CN(c1cc(C(F)(F)F)ccc1Cl)S(C)(=O)=O	inactive: 60%
CCc1cccc(C)c1NC(=O)c1cc(C)nc2c1c(C)nn2-c1cccc(Cl)c1C	inactive: 88%
O=C(COc1ccc(Cl)cc1Cl)NC1CCSC1=O (stereo unspecified)	inactive: 87%
COc1cc(NC(=O)c2cc(Cl)c(OC)c(Cl)c2)ccc1NC(=O)c1cc2ccccc2o1	inactive: 82%
CN(C)C(=O)Cn1nc(-c2ccccc2)c2ccccc2c1=O	inactive: 92%
CCC(C)NC(=O)c1ccc(-n2c(-c3ccccc3)cc3c2CCCC3)cc1 (stereo unspecified)	inactive: 112%
COC(=O)c1cc(NC(=O)Cn2nc(C)n3cccc3c2=O)cc(C(=O)OC)c1	inactive: 87%
Cc1ccccc1CNC(=O)c1ccc(-c2nc(CS(=O)(=O)c3ccccc3)c(C)o2)cc1	inactive: 60%

Structure (SMILES)	survival
CCOC(=O)C1=C(CS(=O)(=O)c2ccc(Br)cc2)NC(=O)NC1c1ccccc1 (stereo unspecified)	inactive: 80%
CCc1nn2c(=O)c(S(=O)(=O)Nc3ccc(OC)c(Cl)c3)c(C)nc2s1	inactive: 64%
Cc1ccc(CSc2nc3ccc(NC(=O)C(C)C)cc3s2)cc1	inactive: 87%
O=C(NCC(c1cccnc1)N1CCN(Cc2ccccc2)CC1)C(=O)Nc1ccc(Cl)cc1 (stereo unspecified)	inactive: 85%
COc1ccc(C(CC(=O)Nc2ccc(C)c(C)c2)N2Cc3ccccc3C2=O)cc1OC (stereo unspecified)	inactive: 80%
Cc1cc(OC(=O)c2cc(-c3ccc4c(c3)OCCO4)on2)ccc1Cl	active: -1%
COc1ccc2c(c1)-c1nc(NC(=O)c3cc(Cl)ccc3OC)sc1CC2	inactive: 69%
CN1c2ccccc2-c2nc(SCC(=O)Nc3ccccc3C(F)(F)F)ncc2S1(=O)=O	inactive: 95%
COc1ccc(OC)c(NC(=O)c2c(NCc3ccc(C)o3)sc3c2CCC(C)C3)c1 (stereo unspecified)	active: 52%
COc1ccc(C(=O)NCc2ccc3c(c2)CCN3C(=O)c2ccncc2)cc1	inactive: 88%
Cc1ccc(CSCC(=O)N2CCN(c3ccc(F)cc3)CC2)cc1	inactive: 70%
CC(C)c1ccc(S(=O)(=O)c2nnn3c2nc(NC2CCCC2)c2sccc23)cc1	inactive: 65%
Cc1ccc2c(=O)cc(CSc3ccccc3)[nH]c2c1C	inactive: 85%
Cc1nc(CC(=O)Nc2cccc(C)c2C)cs1	active: 39%
CC(=O)c1cccc(S(=O)(=O)NCCc2csc3nc(-c4ccc(F)cc4)nn23)c1	inactive: 88%
O=C1CCC(C2CCC(=O)N2)N1 (stereo unspecified)	inactive: 104%
O=C(CSc1nc(-c2ccccc2)nc2c1CCCC2)c1ccc(F)cc1	inactive: 83%
CCC(=O)N1c2ccc(S(=O)(=O)NCc3cccc(OC)c3)cc2CC1C (stereo unspecified)	inactive: 67%
Cc1ccc(S(=O)(=O)c2nc(-c3ccco3)oc2SC(C)c2ccccc2)cc1 (stereo unspecified)	active: 45%
COc1cc(NC(=O)CCc2c(C)nc3nc(-c4cc(OC)cc(OC)c4)nn3c2C)cc(OC)c1	inactive: 83%
CCCCN(CC)CCNC(=O)c1cc2c(-c3ccc(Cl)cc3)nn(C)c2s1	inactive: 59%
Cc1ccc(NC(=O)Cn2cc(C#N)c3ccccc32)cc1	inactive: 101%
O=C(CN1CCC(NC(=O)c2ccccc2)CC1)NCc1ccccc1F	inactive: 89%
